The whole screen tested about 350,000 compounds, of which about 260 (0.074%) were called active. The shares of active, inactive and inconclusive entries below differ from those in the screen. Calls follow the shape of the dose curve; as a rule, active = well fitted inhibition curve with a large enough effect; inconclusive = small, poorly fitted or top-dose-only effect; inactive = no such curve, though single readings can be large or run the other way. Where the call is inconclusive, the potency comes from a doubtful curve fit.
Biological target: Ferritin light chain (Equus caballus) (UniProt P02791)
Experiment: qHTS Assay for Identification of Novel General Anesthetics; also: nearly all actives have a fitted effect of over 20% in size
Conditions: apoferritin/1-aminoanthracene competitive binding, fluorescence; series mostly up to 77.5 µM
Outline: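 10 uM apoferritin + 50% sat. 1-AMA, PBS; cpd 10 min RT; Ex380/Em535 endpoint; normalized to free probe vs complex; 4-param Hill fit; propofol titration as pos. ctrl.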
Potency is read from the fitted curve at half-maximal effect; tags tell the direction and shape of the fitted curve.

Chain of UniProt P02791 (P02791 whole entry, looked up): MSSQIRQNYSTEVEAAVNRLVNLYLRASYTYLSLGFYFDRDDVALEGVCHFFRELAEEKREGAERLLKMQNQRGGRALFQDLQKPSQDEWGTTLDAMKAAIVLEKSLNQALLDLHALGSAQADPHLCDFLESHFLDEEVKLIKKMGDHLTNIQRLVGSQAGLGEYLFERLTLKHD

Row | Compound | Potency
1 | CCOC(=O)c1c(NC(=O)CSc2nnc(CNc3ccc(F)cc3)o2)sc(C)c1C | inconclusive: 12.6 µM [inhibitor, partial curve]
2 | Cc1ccc(NC(=O)C2CCC(CNS(=O)(=O)c3cccc4nsnc34)CC2)c(Cl)c1 (stereo not drawn) | inactive
3 | COc1ccc(NC(=O)COC(=O)c2c3c(nc4ccccc24)CCCC3)cc1 | inconclusive: 3.55 µM [inhibitor, full curve]
4 | COC(=O)c1c(C)oc2ccc(N(C(=O)c3ccncc3)S(=O)(=O)c3cc(C)ccc3C)cc12 | inconclusive: 12.6 µM [inhibitor, partial curve]
5 | O=C1c2cccc3cccc(c23)C(=O)N1Nc1ccccc1 | inconclusive: 20 µM [inhibitor, partial curve]
6 | Cc1ccc(C(=O)Nc2ccccc2)cc1S(=O)(=O)Nc1ccccc1 | inactive
7 | CC(=O)c1ccc(NCCC(=O)c2ccccc2)cc1 | inactive
8 | Cc1[nH]nc(SCC(=O)NC2CCCCC2)c1[N+](=O)[O-] | inconclusive: 35.5 µM [inhibitor, partial curve]
9 | CCOc1cc(C)ccc1OCc1nnc(SCC(=O)c2cccc([N+](=O)[O-])c2)n1C | inconclusive: 15.8 µM [inhibitor, partial curve]
10 | O=C(NCCN1CCCCC1)c1ccc(Cn2c(SCc3ccccc3)nc3cccnc32)cc1 | inconclusive: 1.78 µM [inhibitor, full curve]
11 | CC(C)CSc1nc2ccccc2[nH]1 | inconclusive: 20 µM [inhibitor, partial curve]
12 | Cc1cc(C)c[n+](CC(=O)c2cc3ccccc3oc2=O)c1 | inactive
13 | Cc1nn(Cc2ccc(Cl)cc2Cl)c(C)c1NC(=O)c1nc2n(n1)C(C(F)F)CC(C)N2 (stereo not drawn) | inconclusive: 10 µM [inhibitor, partial curve]
14 | Cc1ccc(C(=O)NC2(C(F)(F)F)N=C(c3ccccc3)N(Cc3ccccc3)C2=O)cc1 (stereo not drawn) | inconclusive: 28.2 µM [inhibitor, partial curve]
15 | CC(C)(C)c1ccc(C(=O)N2CCN(Cc3ccccc3)CC2)cc1 | inconclusive: 14.1 µM [inhibitor, partial curve]
16 | Cc1cccc(Nc2nnc(SCC3CCCCO3)s2)c1C (stereo not drawn) | inconclusive: 14.1 µM [inhibitor, partial curve]
17 | CC(=O)Nc1ccc(C(=O)OCC(=O)c2ccc(C)c([N+](=O)[O-])c2)cc1 | inconclusive: 31.6 µM [inhibitor, partial curve]
18 | O=S(=O)(NCc1ccncc1)c1ccc(Br)s1 | inactive
19 | O=C(CN1CCc2ccccc2C1)Nc1ccccc1F | inconclusive: 35.5 µM [inhibitor, single point]
20 | C/C(=N\Nc1nccnc1Cl)c1ccc(F)cc1 | inactive
21 | Cc1cc(S(=O)(=O)Nc2cccc(O)c2)c(C)s1 | inconclusive: 14.1 µM [inhibitor, partial curve]
22 | CCOCc1[nH]c(=S)[nH]c(=O)c1Cc1ccc(OCC(C)C)cc1 | inconclusive: 35.5 µM [inhibitor, partial curve]
23 | COc1cc2c(cc1OC)C1(Nc3c-2c(C)nn3-c2ccccc2)C(=O)Nc2ccccc21 (stereo not drawn) | inactive

Row | Compound | Potency
24 | c1ccc(Cn2c(NCc3ccncc3)nc3ccccc32)cc1 | inconclusive: 28.2 µM [inhibitor, partial curve]
25 | O=C(CCSc1nnc2ccc3ccccc3n12)Nc1ccc(F)cc1 | inactive
26 | Cc1ccc(NC(=O)c2ccc(S(=O)(=O)N3CCCCC3)cc2)cc1 | inactive
27 | O=[N+]([O-])c1ccc2[nH]c3c(c2c1)CCCC3 | inconclusive: 31.6 µM [inhibitor, partial curve]
28 | N/C(=N\OC(=O)CSc1ccccc1)c1ccc([N+](=O)[O-])cc1 | inconclusive: 39.8 µM [inhibitor, partial curve]
29 | CCN(Cc1ccncc1)Cc1c(O)ccc2ccccc12 | inactive
30 | Cc1cccc(NC(=O)C2CCCC2)c1 | inconclusive: 44.7 µM [inhibitor, partial curve]
31 | CO/N=C/C(C#N)c1ncc(C(F)(F)F)cc1Cl (stereo not drawn) | inconclusive: 28.2 µM [inhibitor, single point]
32 | Nc1ncnc2nc(SCc3ccccc3)[nH]c12 | inactive
33 | CCCCOc1ccc(CONS(=O)(=O)c2ccc(NC(C)=O)cc2)cc1Cl | inconclusive: 14.1 µM [inhibitor, partial curve]
34 | CC1(C)Cc2c(cnn2-c2ccccc2)-c2c1c1ccccc1n2CC(O)CBr (stereo not drawn) | inactive
35 | Cc1nc(C)c(-c2nnc(-c3ccc(C(C)(C)C)cc3)o2)cc1C(=O)NN | inconclusive: 50.1 µM [inhibitor, single point]
36 | CN(C)S(=O)(=O)c1ccc(NC(=O)CCNC(=O)c2ccc([N+](=O)[O-])cc2)cc1 | inconclusive: 28.2 µM [inhibitor, partial curve]
37 | Cc1ccc(NC(=O)NNC(=O)Cn2nc(-c3ccccc3)c(-c3ccccc3)c(C#N)c2=O)cc1 | inconclusive: 5.01 µM [inhibitor, partial curve]
38 | Cc1ccc(N=Nc2ccc(O)cc2)c(Br)c1 | inconclusive: 35.5 µM [inhibitor, single point]
39 | CC1CCCN(C(=O)COc2ccc(-c3ccccc3)cc2)C1 (stereo not drawn) | inconclusive: 20 µM [inhibitor, partial curve]
40 | COc1ccccc1C(CNc1ccc(S(=O)(=O)N2CCCC2)cc1[N+](=O)[O-])N(C)C (stereo not drawn) | inconclusive: 28.2 µM [inhibitor, partial curve]
41 | Cc1cc(C)c(C#N)c(SCc2ccccc2[N+](=O)[O-])n1 | inconclusive: 25.1 µM [inhibitor, partial curve]
42 | CCOC(=O)c1ccc2nc(C)cc(Nc3ccc(OC(C)C)cc3)c2c1 | inconclusive: 3.98 µM [inhibitor, full curve]
43 | Cc1ccc(-n2cnc3cc(C(=O)NCc4ccc(F)cc4)ccc32)c(C)c1 | inactive
44 | Cc1nc2cc(C(F)(F)F)ccc2n1CCNc1nc(-c2ccc(F)cc2)cs1 | inconclusive: 28.2 µM [inhibitor, single point]
45 | O=C(CN1CC[n+]2c(-c3cccs3)csc21)c1ccc(-c2ccccc2)cc1 | inconclusive: 17.8 µM [inhibitor, partial curve]
46 | Cc1ccc(C)c(C(=O)COC(=O)C(C)N2C(=O)C3C4CCC(C4)C3C2=O)c1 (stereo not drawn) | inconclusive: 39.8 µM [inhibitor, single point]

Row | Compound | Potency
47 | C=CCn1c(C)cc(C2=NNC(=NC(C)(C)C)SC2)c1C | inconclusive: 28.2 µM [inhibitor, partial curve]
48 | Cc1ccc(-c2nc(C=Nc3ccccc3)c(O)o2)cc1 | inconclusive: 35.5 µM [inhibitor, single point]
49 | CC1CC(C)CN(C(=O)COC(=O)Cc2ccc(Cl)cc2)C1 (stereo not drawn) | inconclusive: 35.5 µM [inhibitor, single point]
50 | Oc1ccccc1Nc1nc(NCC2CCCO2)c2ccccc2n1 (stereo not drawn) | inconclusive: 20 µM [inhibitor, partial curve]
51 | CCOC(=O)c1nc(Nc2ccc(N3CCC(C)CC3)cc2)c2ccccc2n1 | inconclusive: 39.8 µM [inhibitor, partial curve]
52 | COc1cc(CNCCSc2nnnn2C)ccc1OCc1ccc(C)cc1 | inconclusive: 15.8 µM [inhibitor, partial curve]
53 | COc1cc(C(=O)Nc2ccc(-n3c(C)nc4ccccc4c3=O)cc2)cc(OC)c1OC | inactive
54 | Cc1ccc(-c2noc(-c3ccc(NCc4cccnc4)c([N+](=O)[O-])c3)n2)cc1 | inconclusive: 22.4 µM [inhibitor, single point]
55 | C/C(=N\NC(=S)NCCc1ccccc1)c1ccc(Cl)cc1 | inactive
56 | COc1ccccc1N(C(=O)Cn1nnc2ccccc21)C(C(=O)NCc1ccco1)c1ccc(C)o1 (stereo not drawn) | inconclusive: 28.2 µM [inhibitor, partial curve]
57 | CCCSc1ncnc2c1oc1ccccc12 | inconclusive: 39.8 µM [inhibitor, partial curve]
58 | CCOC(=O)C1CCN(C(c2ccc(OCC)cc2)c2c(O)cc(C)n(CCOC)c2=O)CC1 (stereo not drawn) | inactive
59 | O=C(CCCOc1cccc(Br)c1)NC1CCC(O)CC1 (stereo not drawn) | inconclusive: 31.6 µM [inhibitor, partial curve]
60 | Cc1ccc(NC(=S)NC(=O)c2ccc(Br)o2)c(C)c1 | inactive
61 | Cc1cc(C(=O)COC(=O)c2ccc3c(c2)NC(=O)CS3)c(C)n1CC1CCCO1 (stereo not drawn) | inconclusive: 25.1 µM [inhibitor, single point]
62 | CCOC(=O)c1sc(NC(=O)Cn2nnc3sc4c(c3c2=O)CCCC4)nc1C | inconclusive: 50.1 µM [inhibitor, partial curve]
63 | Cc1cc(C)nc(SCC2COc3ccccc3O2)n1 (stereo not drawn) | inconclusive: 35.5 µM [inhibitor, partial curve]
64 | Cc1ccccc1CC(=O)Nc1ccc(S(=O)(=O)N2CCN(C)CC2)cc1 | inconclusive: 44.7 µM [inhibitor, partial curve]
65 | Cc1ccc(S(=O)(=O)NCC(=O)N(CC(=O)NCC2CCCO2)Cc2ccco2)cc1 (stereo not drawn) | inconclusive: 25.1 µM [inhibitor, partial curve]
66 | Cc1cc(N2CCCCC2)nc(NCc2ccccc2)n1 | inconclusive: 17.8 µM [inhibitor, partial curve]
67 | Cc1ccc(C)c(N2CCN(S(=O)(=O)c3ccc(-c4coc(C)n4)cc3)CC2)c1 | inactive
68 | Cc1ccccc1OCC(=O)NCC(=O)OCC(=O)c1ccc2ccccc2c1 | inconclusive: 7.94 µM [inhibitor, full curve]

Reference: PubChem BioAssay AID485281 (National Center for Advancing Translational Sciences (NCATS), 2010)
